Experimental data taken from the RNAGym collection of RNA variant scans (doi:10.7554/elife.90254).
Read counts are not given, so values of variants with three or more changes are uncertain.

B1: LINE1-mini (parent)
chain: GGCAGAGCUCAACACAGCGUGGCAAAGUGGCUGUGGCUAGACUGCC

Variants of: B1
Experiment: self-cleavage, relative activity (ratio to wild type); higher = more cleavage; in vitro, sequencing; the parent is a self-cleaving ribozyme

Variant | self-cleavage
GCAAGAGCUCAACACAGCGUCGCAAAGUGGCUGUGGCUAGACUGCC | 0.11
GACAGAGCUCAACACAGCGGGGCAAAGUGGCCGUGGCUAGACUGCC | 0.05
GCCAGAGCUCCACACAGCAUGGCAAAGUGGCUGUGGCUAGACUGCC | 0.01
GCCAGAGCUCAACACGGCGUGGCAAAGUGAUUGUGGCUAGGCUGCC | 0.02
GCCAGAGCUCAACACGGAGUGGCAAAGUGGCUGUGGCUAGACUGCC | 0.04
GCCAGAGCUCAACGCAGCGUGGCCAAGUGGCUGUGGCUAGACUGCC | 0.02
GCUAGAGCUCAACACAGCGUGGCAAAGUGUCUGUGGCUAGACUGCC | 0.22
GCCAGGGCUCAACACAGCGUGGCAAUGUGGCUGUAGAUAGACUGCC | 0.03
GCCAGAGCUCCACACACCGUGGCAAAGUGGCUGUGGCUAGACUGCA | 0.02
GCCAGAGAUCAACACAGCGUGGCAAAGUGGCUGUGGCUCGAACGCC | 0.2
GCCAGAGGUCCAAACAGAGUGGAAAAGUGGCUGUGGCUAGACUGCC | 0.02
GCCAGAGCUCAUCACAGCGUGGCAAAAUGGAUGUGGCUAAACUGCC | 0.04
GCCAGAGCUCUACACAGCGUGGCAAAGUAGCUGUGGCUAGAAUGCC | 0.01
GCCAGAGCUCAUCACAGCGUGGCAAAGUGGCUGUGGCUAGACUGUC | 0.12
GCCGGAGCUCAACACAGCGUGGCAAAGGGCCUGUGGCUAGACUGGC | 0.04
GCCAGAGCUCCACACCGCGGGGCAAAGUGGCUGUGGCUAGACUGCC | 0.01
GCUAGAGAUCAACACAGCGUGGCAAAGUGGCUGUGGCUAGACUGCC | 0.06
GCCAGAGCUCGACACAGCGUGGCAAAGUGGCUGUGGCUAGACAGCC | 0
GCCAGAGGUCAACACAGCGUGGCAAAGUGGCUUUGGCUAGACUGCC | 0.08

Variant | self-cleavage
GCCAGCGCUCAACACAGCGUGGCAAUGUGGCUGUGGCUAGUCUGCC | 0.08
GACAGAGCUCAACACAGCGUGGCAAAGUGGCUGCGGCUCGACUGCC | 0.13
GCCAGAGCUCAACACUGCGUGGCAAAGUGGCUGUGGCUAGACAGCC | 0.03
GCCAGAGCUCAACACAGCGUGGCAAGGUGGCUGUUGCUAGACUGCC | 0.24
GCGAGAGCUCAACACAGCGUGGCAAAGUGGCUGUGGCUAAACUGCC | 0.03
GCCCGAGCUCAACACAGCGUGGCCAAGUGAGUGUGGCUAGACUACU | 0.02
GACAGAGCUCAACACAGCGUGGCAAAGUGGCUGUGGCGAGACUGCA | 0.05
GCCAGAGCUCAACCCAGGGUGGCAAAGUGGCUGUGGCUAGACUGCU | 0.02
GCCAGAGCUCUACCCAGCGUGGGAAAGUGGCUGUGGCUGGGCUGCC | 0
GACAGAGCUCAACACAGCGUGGCAAAGUGGCUGGGGCUAGACUGUC | 0.21
GCCAGAGCUCAACACAGCGUGGCAAAGUGGCUGUGGCUGGAGUGCC | 0.47
GCCAGAGGUCAACACAGCAUGGCAAAGUGGCUGUGGCUAGACUGCC | 0.07
GCCAGCGCUCAACACAGCGUGGCAAAGUGGCUGUCGCUAGACUGCC | 0.06
GCCAGAGCUCAACACAGCGUGGCAAUGUGGCUGUGGCUUGUCUGCC | 0.14
GCCAGUUCUCAACACCGCGUAGCAAAGUGGCUGUGGCUAGAAUGCC | 0.76
GCCAGAGCUCAACACUGCGUGGCUAAGUGGCUGUGGCUAGACUGCC | 0.03
GCCAGAGCUCAACACAGCGUGGCUAAGUGGCUGUGGCUAAACCGCC | 0.12
GCCCGAGCUCAGCACAGCGUGCCAAAGUAGCUGUGGCUAGACUGCC | 0.05
GCCAGAGCUCAACACAGCGUGGCUAAGGAGCUGUGGCUAGCCUGUC | 0.05

Variant | self-cleavage
GCCAGAGCUCAACGCAGCGUGGCAAAGUGGCUGUGGUUAGACUGCC | 0.06
GCCGGAGCUCAACACAGCGUGGCAAAGUGGCUGUGGCUAAACUGCC | 0.01
GCCAGAGCUCAACGCAGCGUGGCAAAUUGGCUGUGGCUAGACUGUC | 0.01
GCGAGAGCUCAACACAGCGUGGCAAAGUGGCUGUGGCUAGACUGCU | 0.02
GCGAGAGCUCAACACAGCGUGGCAAAGUGGCUGUGGCUAGACUGCA | 0.1
GCCAGAGCUCAACACAGCGUGGCUAAGUGGCUGUGGCUAGACUGGC | 0.52
GCCAGAGCUCAUCACAGCAUGGCAAAGUGGAUGUGGCUAGACUGCC | 0.04
GCCAGAGCUCGACACAGCGUGGCAAAGUGGCUGUGGCUAUACUGCC | 0.01
GCCAGCGCUCAACACAGCGUGGCAAAGUGGGUGUGGCUGGACUGCC | 0.03
GACAGAGCUCAACACAGCGUGGCAAAGCGGCGGAGACUAGACUGCC | 0.02
GCCAGAGCUCAACUCAGCGUGGCAAAUUGGCUUUGGCUCGAAUGCC | 0.03
GCUAGAGCUCAACACAGCGUGGCAAAGUGGCUGUGGCUAGCCUGCC | 0.08
GCCGGUGCGCAACACAGCGUGGCAAAGUUGCUGUGGCUAGACUGCC | 0.08
GCCAGAGCUCACCACAGCGUGGAAAAGUGGGUGUGUCUUGACUGCC | 0.01
GCCAGAGGUCACCACAGCGUGGCAAAGUUGCUGUGGCUAGACUUCC | 0.02
GCAAGAGCUCACCCCAGCCUGGCAAAUUGGCUGUGACUACACUGGC | 0.01
GACAGAGCUCAACACAGCGGGGCAAAGUAGCUGUAGCUAGAUUGCC | 0.36
GCCAGAGCUCAUCACAGCGUGGCAAAGUGGAUGUGGCUCGACUGCC | 0.02
